# Measurements published in the supplement of paper PMC10126150.
# Values marked as one replicate rest on one cluster of the flow cell; about a third of the high ones do not repeat.
# Tested on: ATP
# Assay: switch fluorescence ratio, 500 uM ATP over buffer (Cy3 cluster intensity, sum of 5 cycles each) (fold (ratio)); higher = stronger signal-on switching upon ATP binding; sequences stand for … in TCGTCGGCAGCGTCAGATGTGTATAAGAGACAGTTTTTTTTTTTTTTTTTTTTTTTTT…TC
# Settings: aptamer strand: ATP DNA aptamer (quencher-CACCTGGGGGAGTATTGCGGAGGAAGG + anchor), 100 nM annealed; ATP concentration: 500 uM; one replicate
# How it was run: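 Per cluster, summed Cy3 intensity from the target cycles was divided by that from the buffer cycles to give the fluorescence ratio, then averaged per switch-domain sequence. Clusters outside 100-1000 RFU were excluded. The Cy3-labelled switching-strand clusters, on a modified Illumina MiSeq flow-cell, were annealed to 100 nM quencher-labelled ATP aptamer and imaged in selection buffer, then after 15 min with 500 uM ATP at 22 °C, for five cycles with NaOH stripping and re-annealing between them.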
# 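Further: ATP exposure 15 min at 22 °C before imaging.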
row,Sequence,switch fluorescence ratio
1,CTTGAGGAAT,0.999
2,CTTGAGTAAC,1.03
3,CTTGATAATT,0.994
4,CTTGATACGC,1.24
5,CTTGATCTGT,1.01
6,CTTGATGGCC,1.03
7,CTTGCAAGGG,1.04
8,CTTGCAGACA,1
9,CTTGCATTAT,1.34
10,CTTGCCACAG,1.02
11,CTTGCCAGTG,1.06
12,CTTGCTGCGT,1.02
13,CTTGGAATGG,1.01
14,CTTGGACTGG,1.01
15,CTTGGATTGA,1
16,CTTGGCATGC,1.2
17,CTTGGCCTAC,1.33
18,CTTGGTAGCC,1
19,CTTGGTCGCC,1.06
20,CTTGGTTCTT,0.966
21,CTTGTAAATG,1.06
22,CTTGTAAGTA,0.948
23,CTTGTACAAG,1
24,CTTGTAGCAT,1.54
25,CTTGTATGAT,0.984

row,Sequence,switch fluorescence ratio
1,CTTGTGATGT,0.949
2,CTTGTGCCCA,0.973
3,CTTGTGGGAG,1.02
4,CTTGTGTTTC,1.03
5,CTTGTTAGAT,1.02
6,CTTGTTCGAG,0.96
7,CTTGTTTAGG,0.999
8,CTTTAATAGC,1.03
9,CTTTACAACC,1.08
10,CTTTAGGCGA,1.04
11,CTTTATTCCA,0.993
12,CTTTATTCCC,1.01
13,CTTTCATCGT,1.01
14,CTTTCCGATT,1.04
15,CTTTCCGCTG,2.39
16,CTTTCGATTC,1.06
17,CTTTCGTTAT,1.04
18,CTTTCTGTAA,1.06
19,CTTTGAACGA,0.977
20,CTTTGAGGAG,0.975
21,CTTTGCAGGA,1.02
22,CTTTGCAGTA,1.31
23,CTTTGCTGTA,1.02
24,CTTTGGACTG,1.07
25,CTTTGGGGAG,1.33

row,Sequence,switch fluorescence ratio
1,CTTTGGGGC,0.995
2,CTTTGTTCAT,0.981
3,CTTTTCAAGA,1.04
4,CTTTTCGCCT,0.998
5,CTTTTCGGGC,1
6,CTTTTGATTG,1.01
7,CTTTTGGGAG,2.31
8,CTTTTTAGCC,1.09
9,CTTTTTTCCG,1.04
10,GAAAAAACAA,1.05
11,GAAAAACCAT,0.994
12,GAAAAACCCT,1.08
13,GAAAAAGAAA,0.923
14,GAAAAGATAG,0.991
15,GAAAAGCCCA,1.02
16,GAAAATACGG,1.01
17,GAAAATTAGC,0.984
18,GAAAATTTCC,1.16
19,GAAACAACAT,1.7
20,GAAACAATAG,1.32
21,GAAACATACT,1.26
22,GAAACATTCT,1.26
23,GAAACGCCGT,0.996
24,GAAAGAGGTA,0.963
25,GAAAGATAGG,0.961

row,Sequence,switch fluorescence ratio
1,GAAAGCCCAA,1.03
2,GAAAGCGTGG,1.04
3,GAAAGCTGGG,1.06
4,GAAAGGATCG,0.985
5,GAAAGGCCTC,0.978
6,GAAAGGCGGA,1.03
7,GAAAGGGATA,1.01
8,GAAAGTAAG,0.986
9,GAAAGTTTTC,0.969
10,GAAATAGCAG,0.987
11,GAAATCTACG,1.07
12,GAAATCTTAT,0.999
13,GAAATGGGTC,1
14,GAAATGTTAC,1.14
15,GAACAAATGT,0.966
16,GAACAGAAGT,1.03
17,GAACAGGGAC,1.02
18,GAACAGGGTA,0.956
19,GAACCAAAAT,1.06
20,GAACCCCACT,1.24
21,GAACCGCTCG,1.12
22,GAACCGGTGG,1.04
23,GAACCTCTGC,1.44
24,GAACGCAAAT,3.83
25,GAACGCGCGA,0.975

row,Sequence,switch fluorescence ratio
1,GAACGGATGG,0.979
2,GAACGGGGAG,1.02
3,GAACGGTCTC,0.996
4,GAACGTCACT,1.81
5,GAACTACCCC,1.19
6,GAACTGCCGT,0.993
7,GAACTGCTGG,0.97
8,GAACTTAACT,1.23
9,GAACTTCCT,1.93
10,GAAGAATTTG,0.977
11,GAAGACGGGT,1.02
12,GAAGACTGGC,0.944
13,GAAGAGTAAG,0.996
14,GAAGATATGC,1.04
15,GAAGATCTAA,0.99
16,GAAGATGATA,0.978
17,GAAGCAGCTG,1.04
18,GAAGCATTAG,3.14
19,GAAGCCAGTG,1.08
20,GAAGCGAAGG,1.05
21,GAAGCGTCGG,1.02
22,GAAGCTCAAC,1.57
23,GAAGCTGCGG,1.02
24,GAAGCTGGAG,1.02
25,GAAGGAACGC,1.09

row,Sequence,switch fluorescence ratio
1,GAAGGAAGGA,1
2,GAAGGCTTTG,0.98
3,GAAGGGGTT,1.02
4,GAAGGGTCCG,0.904
5,GAAGGTTCAG,0.955
6,GAAGGTTCGC,1.05
7,GAAGTACTCG,1.13
8,GAAGTAGATC,1.01
9,GAAGTCCC,0.929
10,GAAGTCTGCA,1.06
11,GAAGTCTTGC,0.998
12,GAAGTTAGTG,0.97
13,GAAGTTCAAT,1.05
14,GAAGTTCGA,0.976
15,GAAGTTGGAT,0.953
16,GAAGTTGTT,0.994
17,GAATAAAATC,1.02
18,GAATAATCCT,1.13
19,GAATACATCT,1.01
20,GAATACCGGG,0.982
21,GAATACGCTA,1.56
22,GAATAGATAT,1.03
23,GAATAGCCTG,1.06
24,GAATAGTAGC,0.947
25,GAATATGTGT,0.94

row,Sequence,switch fluorescence ratio
1,GAATCAACCG,1.03
2,GAATCAACGT,1.02
3,GAATCAGCCT,1.14
4,GAATCAGTGC,1.07
5,GAATCATAAA,0.999
6,GAATCCACTT,1.12
7,GAATCCCTGG,1.08
8,GAATCCTGT,1.02
9,GAATCTAGCC,0.961
10,GAATGAAGAG,1
11,GAATGAAGCT,1
12,GAATGACATG,0.986
13,GAATGATTTG,0.986
14,GAATGGAACC,1.08
15,GAATGTAAGT,0.996
16,GAATTCAGGA,0.996
17,GAATTCATCG,1.01
18,GAATTCCACC,1.07
19,GAATTCGCTT,1.03
20,GAATTCTAAC,1.04
21,GAATTGAATA,1.04
22,GAATTGAGTT,1.01
23,GAATTTACC,1.08
24,GAATTTAGC,1.02
25,GAATTTGGCT,0.967

row,Sequence,switch fluorescence ratio
1,GACAACCCCT,1.06
2,GACAACCGGG,1.15
3,GACAAGGGTT,1.01
4,GACAAGTGTA,0.958
5,GACAAGTTAC,1.56
6,GACAATGGCC,1.03
7,GACACAGATC,1.09
8,GACACCGTGG,0.987
9,GACACCTTTT,1.06
10,GACACGGAGA,1.02
11,GACAGAGACA,0.995
12,GACAGATCTT,0.992
13,GACAGCCGAA,1.02
14,GACAGGTCAC,0.996
15,GACAGGTCAT,1.02
16,GACATACGAC,1.47
17,GACATATCAG,0.986
18,GACATATGTG,1.09
19,GACATCAAGC,1.03
20,GACATTATAG,0.95
21,GACATTCCCG,1.08
22,GACATTCGCG,1.02
23,GACCAGCTTG,0.98
24,GACCAGTATG,0.967
25,GACCATCAAA,1.05
